Laboratory results reported in the supplement of paper PMC7726561.
Over roughly 1,100 sequences, “thermal melting temperature (Tm) of peptide-HLA complex” has its median near 58; the lowest 2% begin near 42. Some of the results follow.

target: HLA-A*02:01; assay: thermal melting temperature (Tm) of peptide-HLA complex; higher = more thermostable pHLA complex; conditions: C1R-A*02:01
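Note: cell lysates heated 10 min at 37–73 °C, remaining pHLA pulled down with pan-class I antibody, peptides quantified by DIA-MS versus 37 °C, Tm where half the complex is lost.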

| Sequence | thermal melting temperature [°C] |
| --- | --- |
| SLHDAIMIV | 54.4 |
| ALFPAPLAQI | 62.7 |
| VLFGVETHV | 60.4 |
| SLADIAQKL | 56.7 |
| RLIQESPTL | 60.4 |
| FLVEHVLTL | 52 |
| ALSDHHIYL | 63.2 |
| FVADGIFKA | 41.1 |
| AMFESSQNVLL | 56.1 |
| VLDEEIAKA | 40.7 |
| RVISELQEA | 40.7 |
| ELMEQVPHI | 48.9 |
| FLQPGGYHV | 58.9 |
| KMDEVLYSI | 59 |
| RLQDELVTL | 63.1 |
| RQIEYYFSV | 61.3 |
| KMFESFIESV | 58.8 |
| QLQDTLIHL | 57.2 |
| ILTDITKGV | 60.9 |

| Sequence | thermal melting temperature [°C] |
| --- | --- |
| ALLDGRVQL | 61.3 |
| GTIGLIHAV | 55.5 |
| SLLPFLKAV | 61.9 |
| SMSADVPLV | 61.3 |
| TMADQIVTV | 58 |
| ALDKATVLL | 58 |
| NLVPMIIHL | 51.3 |
| ALITRIFGV | 63.6 |
| LLHDGIPVV | 62.2 |
| SLLSHVEQL | 61.3 |
| VLLSDSNLHDA | 50 |
| VLAENPDIFAV | 58.7 |
| FLIRESETL | 56.2 |
| SLAGDVALQQL | 56 |
| FIINGIEKV | 58.8 |
| ALAEALKEV | 62 |
| RVADVIAQV | 60.2 |
| ILQDEQYLM | 54.9 |
| GLLTEIRAV | 62.6 |

| Sequence | thermal melting temperature [°C] |
| --- | --- |
| YIAEEYSRL | 49.5 |
| SLYDWNVKL | 50.3 |
| FIDDANYSV | 60.2 |
| FLASESLIKQI | 63.2 |
| LLFDQNDKV | 58.6 |
| KTLEGEFSV | 57.7 |
| SLFGNIKGA | 57.2 |
| FLLEKGYEV | 63.2 |
| HLSIINEYL | 62.4 |
| KLFDAPLSI | 61.6 |
| SLNEYQPKL | 59.4 |
| SLQEEKLIYV | 59.5 |
| VLQDKDLFSV | 60.1 |
| ALDDSRFQI | 57.2 |
| FLIPIYHQV | 62.7 |
| MLANDIARL | 56 |
| ILNEFPGHGL | 57.5 |
| SLLGGDVVSV | 62.7 |
